± gives the standard deviation of the averaged measurements. Whole data set: some 33,000 sequences, median “E-score (dimensionless, -0.5 to 0.5)” near -0.046, cut for the highest 2% near 0.36. The list shows a part of the results.

The assay relates to T1, SpTbr T-box DNA-binding domain (GST fusion).
T1 sequence: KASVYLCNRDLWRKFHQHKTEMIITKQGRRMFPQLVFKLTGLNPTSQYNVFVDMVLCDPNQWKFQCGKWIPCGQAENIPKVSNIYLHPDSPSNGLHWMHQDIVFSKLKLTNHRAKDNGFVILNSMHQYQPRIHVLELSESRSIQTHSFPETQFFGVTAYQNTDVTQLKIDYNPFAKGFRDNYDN
Nature of the assay: PBM E-score of 8-mer (E-score (dimensionless, -0.5 to 0.5)); Tbr is Tbrain of the sea star Patiria miniata (Pm) or the sea urchin Strongylocentrotus purpuratus (Sp); higher = stronger binding preference; most listed sequences are background and not binding sites. As to conditions: the construct has about 5 more residues each side. In short, it runs like this:
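Universal Agilent oligonucleotide arrays, made double-stranded by primer extension, were incubated with 200 nM GST-fused Tbr T-box DNA-binding domain in PBS (pH 7.5). The protein was expressed in BL21 E. coli at 20 °C and purified by glutathione affinity chromatography. After scanning and quantification, the Universal PBM Analysis Suite assigned an enrichment E-score to each ungapped 8-mer, averaged over duplicate arrays.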
As for CGGAACAA, the “PBM E-score of 8-mer” value was -0.128 ± 0.025.

As to AGTCGGTC, the “PBM E-score of 8-mer” value is -0.162 ± 0.036. For AATGTTAC, the “PBM E-score of 8-mer” value is -0.172 ± 0.031.

Turning to CGGTCTTA, the “PBM E-score of 8-mer” value was -0.031 ± 0.0092.

Take AGCTTCTC: the “PBM E-score of 8-mer” value worked out at 0.0298 ± 0.03. For the sequence GGTGGCGA, the “PBM E-score of 8-mer” value turned out to be 0.358 ± 0.02. The value for CACATACC was 0.28 ± 0.0043. Regarding GAACTTAC, the “PBM E-score of 8-mer” value was -0.0233 ± 0.034. With GTCACGAA, the “PBM E-score of 8-mer” value worked out at 0.298 ± 0.02. For CGGACAAA, the “PBM E-score of 8-mer” value is -0.0576 ± 0.039. CGATGTGA: the “PBM E-score of 8-mer” value amounted to 0.183 ± 0.017. For ATACCTGG, the “PBM E-score of 8-mer” value amounted to 0.0363 ± 0.063. As for CAGTGAGA, the “PBM E-score of 8-mer” value was 0.157 ± 0.062. As to TCCAAACA, the “PBM E-score of 8-mer” value is 0.00763 ± 0.013. The value for CGCTTTTC was 0.114 ± 0.028; that for GACAAGAC was 0.0763 ± 0.0014; that for AACGTTGT was 0.0629 ± 0.015. Consider CGAAGACG, for which the “PBM E-score of 8-mer” value is -0.187 ± 0.011. The value for CTCTGGCA was -0.0543 ± 0.092; that for CTTTTACC was -0.189 ± 0.022. Take TTCTTCAA: the “PBM E-score of 8-mer” value was -0.119 ± 0.038.

AATCAGCC: the “PBM E-score of 8-mer” value was -0.109 ± 0.028.

With TAAGATAA, the “PBM E-score of 8-mer” value is -0.186 ± 0.023.

For the sequence CTGTTGTC, the “PBM E-score of 8-mer” value was found to be 0.196 ± 0.003. In the case of ATCTTGAA, the “PBM E-score of 8-mer” value was -0.159 ± 0.06.

AGGGTACA: the “PBM E-score of 8-mer” value is -0.139 ± 0.016. Turning to ACAGGGTC, the “PBM E-score of 8-mer” value was determined as 0.0376 ± 0.014. As to CGTCTTAA, the “PBM E-score of 8-mer” value was -0.156 ± 0.024.

Take GTTTATGA: the “PBM E-score of 8-mer” value was -0.1067 ± 0.001. As for ACGGTAGT, the “PBM E-score of 8-mer” value is -0.184 ± 0.0027. In the case of AATAGGGG, the “PBM E-score of 8-mer” value is -0.156 ± 0.081. As to CGCAGGAG, the “PBM E-score of 8-mer” value was -0.0618 ± 0.062. GCCCACAC: the “PBM E-score of 8-mer” value was 0.323 ± 0.011. Under CTATGCTC stands -0.00534 ± 0.12; under ATTAGGGA, -0.216 ± 0.039. Take AAACGCTG: the “PBM E-score of 8-mer” value is -0.129 ± 0.063. Turning to CATACTTC, the “PBM E-score of 8-mer” value is -0.281 ± 0.03. For the sequence CTTCCTTC, the “PBM E-score of 8-mer” value was -0.175 ± 0.02. In the case of AGAAAGAT, the “PBM E-score of 8-mer” value was -0.108 ± 0.017. For the sequence TGCGGCAA, the “PBM E-score of 8-mer” value is -0.0828 ± 0.018.

As for GTAACCAC, the “PBM E-score of 8-mer” value came to 0.131 ± 0.017. In the case of GCTGGCTA, the “PBM E-score of 8-mer” value was -0.0862 ± 0.076.

With CCAGCGGG, the “PBM E-score of 8-mer” value was -0.201 ± 0.052. As to AAAACACG, the “PBM E-score of 8-mer” value was 0.162 ± 0.0017. Take ATATGTAG: the “PBM E-score of 8-mer” value was -0.262 ± 0.0068.

As for ATGCAGAA, the “PBM E-score of 8-mer” value was -0.135 ± 0.0029. Take GCAGTAAA: the “PBM E-score of 8-mer” value was -0.101 ± 0.05. The value for AGTTTTCC was -0.139 ± 0.017; that for AGCTTAAC was -0.114 ± 0.057. The value for ATATCATG was -0.047 ± 0.0019; that for CCTTCTAA was -0.0346 ± 0.021; that for CGAATACA was 0.145 ± 0.063.

As for ATGTGCAG, the “PBM E-score of 8-mer” value was found to be 0.0321 ± 0.052. In the case of CCTAGGGC, the “PBM E-score of 8-mer” value was -0.0908 ± 0.074. In the case of ATTATTAC, the “PBM E-score of 8-mer” value is -0.0141 ± 0.028. On to CATGAATG, for which the “PBM E-score of 8-mer” value was -0.0877 ± 0.012.

Take CACTTGTA: the “PBM E-score of 8-mer” value is 0.116 ± 0.046.

As for TAACTGAA, the “PBM E-score of 8-mer” value is -0.0238 ± 0.023. As to ACTTTTCG, the “PBM E-score of 8-mer” value is 0.198 ± 0.034. Under TTAGAAAA stands -0.131 ± 0.021; under CTGAGCTA, -0.182 ± 0.066; under GCAGTGCA, -0.104 ± 0.014. As for ACCACGGA, the “PBM E-score of 8-mer” value is -0.0587 ± 0.03.

Take CAGTTCAC: the “PBM E-score of 8-mer” value turned out to be 0.251 ± 0.038. The value for AGAGGCAC was -0.226 ± 0.02. Take CACACAAA: the “PBM E-score of 8-mer” value was 0.209 ± 0.022. In the case of GTGCGCGA, the “PBM E-score of 8-mer” value turned out to be 0.201 ± 0.12. The value for ATATTGTG was 0.185 ± 0.032. For ATTAACAG, the “PBM E-score of 8-mer” value turned out to be 0.139 ± 0.014.

Consider GTCAGCTA, for which the “PBM E-score of 8-mer” value was -0.00347 ± 0.018. Under GTATGGCA stands 0.0595 ± 0.0057; under CAGTATCA, -0.0107 ± 0.037. As to ATGCCACG, the “PBM E-score of 8-mer” value amounted to 0.133 ± 0.013.

For the sequence ACGACAAG, the “PBM E-score of 8-mer” value was 0.24 ± 0.026. The value for GACAGTCC was -0.0255 ± 0.02; that for CTTCGAGA was -0.073 ± 0.056. Turning to GTCAAAAA, the “PBM E-score of 8-mer” value was determined as 0.0606 ± 0.12. For the sequence AAAGTGAC, the “PBM E-score of 8-mer” value stood at 0.367 ± 0.032. For CCTAGTCA, the “PBM E-score of 8-mer” value came to 0.0243 ± 0.025.

TAAATATA: the “PBM E-score of 8-mer” value is -0.112 ± 0.011. The value for ACTGGCCT was -0.186 ± 0.03; that for GCTTGGCA was -0.00545 ± 0.042; that for CGCTGATA was -0.0454 ± 0.046. Turning to ACGGCTGG, the “PBM E-score of 8-mer” value was -0.0696 ± 0.019. Under ACAGGCGG stands 0.00977 ± 0.0076; under AGGTACGG, 0.0344 ± 0.00076; under CAGAGTAG, -0.204 ± 0.021. The value for ATGACATG was -0.0149 ± 0.038; that for ATGAACCA was -0.244 ± 0.055; that for ATCAGCAT was 0.119 ± 0.02. In the case of ACGAGGAG, the “PBM E-score of 8-mer” value is -0.0395 ± 0.047. As to AAGTGGGC, the “PBM E-score of 8-mer” value came out at 0.114 ± 0.043. For AAAAGTTT, the “PBM E-score of 8-mer” value amounted to 0.0128 ± 0.031.

Turning to CGACCTCA, the “PBM E-score of 8-mer” value was determined as 0.0385 ± 0.017.

The values are drawn from the supplement of paper PMC4166925.
